# Measurements reported in article PMC4336329 (PLoS ONE, 2015).
# Among all 310,000 compounds or so, about 2,200 (0.71%) showed an effect of 50% or more. Effects have a minus sign here. The list shows a part of the results.
# Target: human ether-à-go-go-related gene (hERG) potassium channel (human, UniProt Q12809)
# Assay: primary screen, population patch clamp on CHO cells stably expressing hERG
# human ether-à-go-go-related gene (hERG) potassium channel, sequence (Q12809 whole entry, looked up): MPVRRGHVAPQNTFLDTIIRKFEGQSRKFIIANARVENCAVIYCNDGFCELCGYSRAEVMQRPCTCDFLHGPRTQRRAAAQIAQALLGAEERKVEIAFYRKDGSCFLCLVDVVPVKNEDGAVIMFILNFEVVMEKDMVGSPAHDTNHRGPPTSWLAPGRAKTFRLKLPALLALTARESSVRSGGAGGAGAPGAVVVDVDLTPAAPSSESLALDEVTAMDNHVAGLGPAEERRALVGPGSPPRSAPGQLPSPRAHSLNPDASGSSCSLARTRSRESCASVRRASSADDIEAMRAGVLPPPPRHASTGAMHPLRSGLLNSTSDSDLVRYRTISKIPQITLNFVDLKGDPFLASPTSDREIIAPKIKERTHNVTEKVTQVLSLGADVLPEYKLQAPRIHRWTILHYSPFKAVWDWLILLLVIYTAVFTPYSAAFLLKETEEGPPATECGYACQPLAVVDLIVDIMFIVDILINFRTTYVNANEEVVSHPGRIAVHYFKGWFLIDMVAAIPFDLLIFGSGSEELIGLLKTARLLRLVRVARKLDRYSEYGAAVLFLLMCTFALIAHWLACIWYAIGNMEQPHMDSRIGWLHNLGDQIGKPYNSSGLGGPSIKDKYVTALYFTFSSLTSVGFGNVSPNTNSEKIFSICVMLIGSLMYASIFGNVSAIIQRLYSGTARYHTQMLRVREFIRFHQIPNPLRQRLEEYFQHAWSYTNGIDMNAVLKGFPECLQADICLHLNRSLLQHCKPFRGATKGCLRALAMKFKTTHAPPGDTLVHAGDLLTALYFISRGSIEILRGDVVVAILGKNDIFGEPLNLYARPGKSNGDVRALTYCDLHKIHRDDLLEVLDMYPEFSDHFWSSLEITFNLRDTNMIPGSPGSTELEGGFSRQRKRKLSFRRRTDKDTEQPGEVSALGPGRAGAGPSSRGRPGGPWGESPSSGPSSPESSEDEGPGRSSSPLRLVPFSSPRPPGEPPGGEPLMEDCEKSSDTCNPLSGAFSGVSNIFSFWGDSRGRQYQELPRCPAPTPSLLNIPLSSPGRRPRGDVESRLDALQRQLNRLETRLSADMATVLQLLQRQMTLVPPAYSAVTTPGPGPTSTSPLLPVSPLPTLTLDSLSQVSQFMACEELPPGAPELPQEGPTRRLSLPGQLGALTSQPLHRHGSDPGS
row,Structure (SMILES),"hERG current change (%, negative = inhibition) at 1uM"
1,COc1cc(C)nc(N2CCCC(C(=O)NC3CCC(C)CC3)C2)n1 (stereo not shown),9.45%
2,Br.Cc1nc(SC2C=CS(=O)(=O)C2)n[nH]1 (stereo not shown),13.4%
3,O=C(NCCc1ccc(Cl)cc1)C1CCCN(S(=O)(=O)c2cnc[nH]2)C1 (stereo not shown),6.95%
4,Cc1cnc(C)c(N2CCN(C(=O)C3CCC(=O)N(CCc4cccc(F)c4)C3)CC2)n1 (stereo not shown),-10.4%
5,Cc1oc(-c2ccccc2F)nc1CN1CCC(C(=O)NCc2ccco2)CC1,-9.53%
6,COc1cccc(C(=O)NNC(=O)c2cccnc2)c1,14.1%
7,S=C(NCCCN1CCOCC1)N1CCN(c2nc(-c3ccccc3)cs2)CC1,10%
8,COc1cccc(C(=O)OCCN2C(=O)c3ccccc3C2=O)c1OC,13.2%
9,COCCn1c(SC(C)C(=O)Nc2ccc3c(c2)OCCO3)nc2ccccc2c1=O (stereo not shown),2.18%
10,COc1ccc(CNCC(=O)Nc2cc(OC)cc(OC)c2)cc1.O=C(O)C(=O)O,14.4%
11,COc1ccc(C(CC(=O)O)NC(=O)COc2ccc(C)cc2)cc1OC (stereo not shown),13.3%
12,Cn1c(C(=O)O)c(CC(=O)N2CCN(Cc3ccccc3)CC2)c2ccccc21,10.4%
13,O=C(O)/C=C/C(=O)Nc1ccccc1SC(F)(F)F,6.11%
14,CSc1n[nH]c(N)c1S(=O)(=O)c1ccc(Cl)cc1,15.1%
15,O=C(Cc1ccc(Cl)cc1)NCCc1c[nH]c2ccccc12,8.06%
16,O=C(OC1CCOC1=O)c1ccc(NS(=O)(=O)c2cccs2)cc1 (stereo not shown),19%
17,COc1cccc(SCc2noc(C(=O)NCCN(C)C)c2C(=O)NCCN(C)C)c1,10.6%
18,Cc1ccc(-n2c(Cc3cccs3)nnc2SCC(=O)Nc2ccc(S(N)(=O)=O)cc2)cc1,9.49%
19,O=C(COc1ccc(S(=O)(=O)N2CCCC2)cc1)Nc1ccc(F)cc1,4.32%
20,CCc1ccc(OCC(=O)N(Cc2ccccc2)C2CCS(=O)(=O)C2)cc1 (stereo not shown),9.81%
21,Cc1nn(-c2ccccc2)c(C)c1NC(=O)CCl,4.95%
22,CC1CN(C(=O)c2ccc(C(=O)c3ccccc3)cc2)CC(C)O1 (stereo not shown),11.8%

row,Structure (SMILES),"hERG current change (%, negative = inhibition) at 1uM"
1,COC(=O)[C@H](Cc1ccccc1)NC(=O)NCc1ccc(C)cc1,1.58%
2,O=C(NCCCO)Nc1ccc2nc(-c3ccco3)c(-c3ccco3)nc2c1,17.2%
3,CC(C)c1ccccc1NC(=O)COC(=O)/C=C/c1cccc([N+](=O)[O-])c1,7.31%
4,ClC1(Cl)CC1CSc1nnc(-c2ccncc2)o1 (stereo not shown),6.7%
5,O=C(N/N=C/c1cc([N+](=O)[O-])ccc1O)c1ccc(COc2ccc3c(c2)CCC3)o1,17.9%
6,Cc1nc2cc(C(F)(F)F)ccc2n1C1CCN(C(=O)N2CCOCC2)CC1,-17.4%
7,O=C(Nc1cccc(S(=O)(=O)N2CCCC2)c1)c1ccc2c(=O)n3c(nc2c1)CCCCC3,-30.1%
8,Fc1ccc(-c2onc3ccc(C4OCCO4)cc23)cc1,8.17%
9,CCn1c(SCc2ccc(Cl)cc2Cl)nc2nc3c(cc2c1=O)CCCC3,3.75%
10,C/C(=N\N1CCCCCC1)c1c(O)n(-c2ccccc2C)c(=O)[nH]c1=O,4.39%
11,O=C(O)CN1C(=O)c2ccc(Oc3ccc4c(c3)C(=O)N(CC(=O)O)C4=O)cc2C1=O,9.58%
12,CC(=O)Nc1ccc(NC(=O)CCC(=O)OCC(=O)c2cccc([N+](=O)[O-])c2)cc1,11.2%
13,Cc1ccc(S(=O)(=O)N(C)C)cc1NC(=O)c1ccccc1Br,9.32%
14,O=C(NCCCN1CCOCC1)C(=O)NCC1CCCO1 (stereo not shown),12%
15,O=C(/C=C/c1cccc([N+](=O)[O-])c1)NCCN1C(=O)S/C(=C\c2cccnc2)C1=O,0.856%
16,COc1ccccc1NC(=S)NCC1CCC(CNC(=S)Nc2ccccc2OC)CC1 (stereo not shown),8.73%
17,COc1ccc(-c2csc(NC3CCCCC3)n2)c(OC)c1,11.2%
18,Cc1nc2ccccn2c1P(=Nc1ccccc1)(N(C)C)N(C)C,-6.57%
19,N#Cc1nc(COc2ccccc2Cl)oc1NCc1ccc(F)cc1,6.47%
20,O=C(NCCCn1ccnc1)C1CCCN(S(=O)(=O)c2cc(Cl)ccc2Cl)C1 (stereo not shown),-6.1%
21,CCC1Sc2ccc(S(=O)(=O)CCC(=O)NCc3ccco3)cc2NC1=O (stereo not shown),1.69%
22,OC[C@H]1OC(O)[C@H](O)[C@@H]1O (stereo partly shown),-47.4%

row,Structure (SMILES),"hERG current change (%, negative = inhibition) at 1uM"
1,CCCn1c(SCC(=O)C(C)(C)C)nc2ccccc21.Cl,5.49%
2,CCOC(=O)[C@@H]1[C@H]2COc3cc(OC)ccc3[C@H]2N2C(=O)N(c3cccc(Cl)c3)C(=O)[C@]12C,14.9%
3,Cl.Fc1ccc(CCNCc2cccc(Cl)c2)cc1,7.69%
4,O=S(=O)(c1cccc(F)c1)N1CCc2sccc2C1c1ccc(OC(F)(F)F)cc1 (stereo not shown),14.5%
5,COc1cc(OC)cc(-c2cc3nc(C)c(CCC(=O)Nc4nc(C)cs4)c(C)n3n2)c1,6.38%
6,Nc1ccc(S(=O)(=O)Nc2nccc(/C=C/c3cccc(Br)c3)n2)cc1,12.8%
7,COc1cccc(CC(NC(C)=O)C(=O)NC2CCN(S(=O)(=O)c3cccc4ccccc34)CC2)c1 (stereo not shown),12.6%
8,CN(C)C(CNC(=O)c1cc(S(=O)(=O)N(C)c2ccc(F)cc2)ccc1Cl)c1ccco1 (stereo not shown),-8.47%
9,O=C1CC(c2ccccc2)CC(O)=C1C=NC1CCCC1 (stereo not shown),8.63%
10,COc1ccc(OC)c(CNC(=O)C2CCN(S(=O)(=O)N3CCCC3)CC2)c1,4.03%
11,COc1ccc(NC(=O)c2cc3ccccc3cc2OC)cc1OC,16%
12,CCN(c1ccccc1)S(=O)(=O)c1cccc(C(=O)NCCN2CCOCC2)c1,3.13%
13,O=C(NCCCN1CCCCC1)C1CCCN(c2ncnc3c2nc2n3CCCCC2)C1 (stereo not shown),12.6%
14,Cn1nc(NC(=O)CC(C)(C)CC(=O)O)c2ccccc21,21.6%
15,CN(c1ccccc1)S(=O)(=O)c1cccc(C(=O)OCC(=O)NCc2ccco2)c1,5.35%
16,Cc1cccc(CCNC(=O)c2cccc(N3CCCC3=O)c2)c1,11.9%
17,CC(=NCc1ccco1)c1c(O)n(C)c(=O)n(C)c1=O,-15.4%
18,CCOc1ccccc1N(C)C(=O)Cn1ncc2c([nH]c3ccc(C)cc32)c1=O,18.8%
19,O=C(Cn1nnc(-c2ccccc2)n1)NNC(=O)c1ccco1,9.15%
20,COc1ccc2[nH]cc(CCNC(=S)NC3CCCC3)c2c1,9.4%
21,OC(c1cccc(OCc2ccccc2)c1)c1nnc(-c2ccccc2)o1 (stereo not shown),7.58%
22,CCC1=C(OC(=O)N(CC)CC)N2C(=O)OC(=NCCc3c[nH]c4ccccc34)[C@]2(C)[C@H]2C1=CC[C@H]1C(=O)N(CC)C(=O)[C@H]12,4.26%

row,Structure (SMILES),"hERG current change (%, negative = inhibition) at 1uM"
1,Oc1ccc(/C=N/Nc2nn3cnnc3c3ccccc23)cc1,14.8%
2,CN(CCOc1ccccc1)CC(O)COc1ccccc1 (stereo not shown),10.3%
3,CC[C@H](C)[C@@H]1NC(=O)c2cc([N+](=O)[O-])cc(I)c2NCC[C@@H](C(N)=O)NC(=O)[C@H](CCCN=C(N)N)NC1=O,8.21%
4,Cc1ccc(OCC(=O)Nc2nnc(S(=O)(=O)N3CCCCCC3)s2)cc1,7.4%
5,Cc1ccc(NC(=O)C2CCN(S(=O)(=O)c3ccc(F)cc3)CC2)cc1,0.43%
6,CN(C(=O)c1cccc(S(=O)(=O)N2CCCCC2)c1)C1CCS(=O)(=O)C1 (stereo not shown),5.43%
7,COc1ccc2[nH]c3c(c2c1)CCN1C(=O)N([C@@H](C)C(=O)NC2CCN(Cc4ccccc4)CC2)C(=O)[C@]31C,-10.2%
8,O=C(CCSc1ccccc1Cl)NNC(=O)c1ccncc1,6.68%
9,Fc1ccccc1COc1ccccc1/C=N/Nc1nc(N2CCCC2)nc(N2CCCC2)n1,7.76%
10,COCCCNc1ncnc2c1cnn2-c1ccc(C)cc1C,8.51%
11,CCOc1ccc(-n2c(-c3ccoc3)nc3ccccc3c2=O)cc1,-1.56%
12,CCc1nnc(NS(=O)(=O)c2ccc(NCc3cc(Cl)cc(Cl)c3O)cc2)s1,-9.25%
13,COC(CNC(=O)c1ccc2c(c1)nc(C)n2-c1cccc(F)c1)OC,4.23%
14,COc1ccccc1N1CCN(/N=C/c2cc(OC)c(OC)c(OC)c2)CC1,11.3%
15,COc1ccccc1C(CC(=O)N1CCCC1)c1ccc2c(c1)OCO2 (stereo not shown),10.8%
16,N#Cc1ccc(N2CCCNCC2)nc1,-90.9%
17,Cc1cn2c(N)c(/C=C3\C=Nc4ccccc43)c(=O)nc2s1,4.91%
18,CN1N=C(C(=O)N2CCCC(N3CCN(c4ccc(F)cc4)CC3)C2)CCC1=O (stereo not shown),5.57%
19,CS(=O)(=O)c1nc(S(=O)(=O)c2ccc(Cl)cc2)c(NCCCN2CCCC2=O)s1,10.8%
